# Measured values from PubChem BioAssay AID1347120 (National Center for Advancing Translational Sciences (NCATS), 2019).
# Out of some 390,000 compounds screened, about 930 (0.24%) were called active. The shares of active, inactive and inconclusive entries below differ from those in the screen. The call rests on the fitted dose curve; in most records, active means well fitted activation curve with a large enough effect; inconclusive means small, poorly fitted or top-dose-only effect; inactive means no such curve, though single readings can be large or run the other way. Potencies beside an inconclusive call are fits to weak or partial responses and may not hold up.
# Assay: qHTS for Suppressors of FUS Proteinopathy: Primary screen using FUS-linked yeast assay; further: nearly all actives have a fitted effect of over 55% in size;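 on growth rescue (activation): plate controls were DMSO vehicle for no effect and reference control for full effect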
# Conditions: S. cerevisiae FUS-expressing, OD600, 24 h; Potency: growth rescue; growth rescue (activation): at 76.6 µM (top of the series)
# Outline: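 Restored growth of FUS-toxic S. cerevisiae, read as 600 nm absorbance after 24 h at 30C in galactose medium (starting OD 0.005). Controls CP55940 and DMSO.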
# Potency means the concentration at half of the fitted maximal effect; tags describe the fitted curve by direction and shape.
SMILES,Potency,growth rescue (activation)
CCN(CC)C(=O)Cn1cc(/C=C(\C#N)C(=O)N2CCN(c3ccccc3)CC2)c2ccccc21,"inconclusive: 15.8 µM [activator, partial curve, poor fit]",
Cc1cccc(COC[C@H](Cc2ccccc2)N2CCN(C(=O)c3ccc(C(F)(F)F)cc3)CCC2=O)c1,"inconclusive: 39.8 µM [activator, single point]",
COc1cc(-c2nc(-c3cccc(Cl)c3)c(-c3ccccc3)[nH]2)cc(OC)c1OC,inactive,
Cc1nn(C)c(C)c1/C=N/NC(=O)c1csc2ccccc12,,inconclusive: 71.9% [activator]
CCOc1ccc2oc(C(=O)NNC(=O)c3csc(N4CCOCC4)n3)c(C)c2c1,"inconclusive: 25.1 µM [activator, partial curve, poor fit]",
OC(COCC1COc2ccccc2O1)CN1CCN(c2ccccc2)CC1 (stereo unspecified),"inconclusive: 8.91 µM [activator, partial curve, poor fit]",
NC(=O)CSc1nnc(Cc2csc(Nc3ccccc3)n2)n1Cc1ccccc1,inactive,
C[C@H]1CN([C@@H](C)CO)C(=O)CCCn2nncc2CO[C@@H]1CN(C)Cc1ccc(-c2ccccc2)cc1,inactive,
COC(=O)[C@]1(C#N)CC(=O)N(C(C)C)[C@@H]1c1ccccc1,inactive,
COc1ccc(S(=O)(=O)N2CCC(C(=O)Nc3ccc4c(c3)OCCO4)CC2)cc1OC,,inconclusive: 72.3% [activator]
CCc1ccc(Oc2c(Cl)cnn(-c3ccc(C)cc3)c2=O)cc1,inactive,
COC(=O)[C@]12C[C@H](CC(=O)N3CCN(C(=O)c4ccco4)CC3)C(=O)N(Cc3cccc4ccccc34)C1=C[C@H](COCc1ccccc1)O[C@@H]2C,"inconclusive: 28.2 µM [activator, single point]",
CCOC1=C2[C@@H](CN(S(=O)(=O)c3ccc(C)cc3)[C@H]2c2ccccc2F)[C@H]2C(=O)N(CC)C(=O)[C@H]2C1,"inconclusive: 39.8 µM [activator, partial curve, poor fit]",
O=C(Cn1sc2ccccc2c1=O)Nc1ccccc1,inactive,
Cc1ccc2c(c1C)NC(=O)CC2c1ccc(Cl)cc1Cl (stereo unspecified),inactive,
CC(=O)c1ccc(C(=O)N2CCc3c([nH]c4ccccc34)C2c2cccc(C)n2)s1 (stereo unspecified),"inconclusive: 44.7 µM [activator, single point]",
Cc1ccc(NC(=O)CN2CCC(NC(=O)C3CCCCC3)CC2)c(Br)c1,inactive,
CCOC(=O)C1=C(C)N(CC(C)C)C(=O)/C1=C\c1ccc(OCC(=O)Nc2ccccc2)cc1,inactive,
O=C(CC1N=C2c3ccccc3N=C(SCc3cccc(F)c3)N2C1=O)NCc1ccc2c(c1)OCO2 (stereo unspecified),"inconclusive: 35.5 µM [activator, single point]",
Cn1c(Oc2ccccc2NCc2cc(Br)ccc2O)cc(=O)n(C)c1=O,"inconclusive: 0.891 µM [activator, full curve, poor fit]",
O=C(CCNS(=O)(=O)c1ccc(OC(F)(F)F)cc1)N1CCN(S(=O)(=O)c2cccc(F)c2)CC1,"inconclusive: 35.5 µM [activator, single point]",

SMILES,Potency,growth rescue (activation)
CC1(C)CC2CC(C)(CN2S(=O)(=O)c2ccc(C(=O)Nc3cccc(S(=O)(=O)N4CCOCC4)c3)cc2)C1 (stereo unspecified),"inconclusive: 12.6 µM [activator, partial curve, poor fit]",
COC(=O)CCCC1=CC2=CC(=O)C(C)(OC(=O)c3cccs3)C(=O)C2=CN1C1CC1 (stereo unspecified),inactive,
O=C(CSc1nn(-c2ccc(Cl)cc2)c(=S)s1)N1CCN(C(=O)c2ccco2)CC1,"inconclusive: 31.6 µM [activator, single point]",
CN1C(=O)CC(c2ccco2)Sc2ccccc21 (stereo unspecified),,inconclusive: 79.7% [activator]
CCOc1ccc(C2=Nc3ccccc3C(c3ccc(N4CCOCC4)cc3)=NN2)cc1,"inconclusive: 28.2 µM [activator, single point]",
COc1ccc(N(CC(=O)N2CCc3ccccc32)S(=O)(=O)c2c(C)n[nH]c2C)cc1,"inconclusive: 25.1 µM [activator, partial curve, poor fit]",
CCc1ccc(-c2nc(CS(=O)CC(=O)NCc3ccccc3)c(C)o2)cc1 (stereo unspecified),"inconclusive: 39.8 µM [activator, partial curve, poor fit]",
CC(=O)Nc1ccc(S(=O)(=O)N(C)c2ccc(OCC(=O)OCC(=O)N3CCCCC3)cc2)cc1,"inconclusive: 15.8 µM [activator, partial curve]",
O=C(Cn1nc(C(F)(F)F)c2c1CCC2)Nc1ccc(Cl)cc1,inactive,
COc1ccc(OC)c(CCNC(=O)C2=C(C)C(=O)OC23CCC(C)CC3)c1 (stereo unspecified),inactive,
CC1CC(C)CN(CCCNS(=O)(=O)c2ccc3c(c2)CCN3C(=O)C2CC2)C1 (stereo unspecified),"inconclusive: 2.51 µM [activator, full curve]",
CCn1c(O)c(N=NC(=O)CNC(=O)c2ccco2)c2ccccc21,inactive,
Cc1ccccc1CN1CCc2c(OCC(=O)N3CCCc4ccccc43)cccc2C1=O,inactive,
O=C(NCc1ccccc1)c1nc2ccccc2s1,inactive,
O=C1CC(/C=C/c2ccco2)=Nc2ccccc2N1,"inconclusive: 4.47 µM [activator, full curve]",
Cc1ccc(-n2c(SCC(=O)Nc3ccc(OCc4ccccc4)cc3)nnc2-c2cnccn2)cc1,"inconclusive: 22.4 µM [activator, partial curve]",
CCCCN(C(=O)CCNC(=O)NC12CC3CC(CC(C3)C1)C2)c1c(N)n(CCCC)c(=O)[nH]c1=O,"inconclusive: 28.2 µM [activator, partial curve, poor fit]",
COC(=O)c1ccc(N2CCN(CC(=O)c3ccc(-c4ccccc4)cc3)CC2)c([N+](=O)[O-])c1,"inconclusive: 35.5 µM [activator, single point]",
CCCCc1ccc(NC(=O)N2CCNC(=O)C2CC(=O)Nc2ccsc2C(=O)OC)cc1 (stereo unspecified),"inconclusive: 31.6 µM [activator, single point]",
COc1ccc2c(c1)NC(=O)[C@@]2(CCN1C(=O)c2ccccc2C1=O)c1[nH]c2ccccc2c1CCN1C(=O)c2ccccc2C1=O,"inconclusive: 8.91 µM [activator, full curve]",
CCn1c(SCC(=O)Nc2oc(-c3ccccc3)c(-c3ccccc3)c2C#N)nnc1-c1ccncc1,"inconclusive: 31.6 µM [activator, single point]",

SMILES,Potency,growth rescue (activation)
COc1cc(Cn2c(=O)sc3ccccc32)ccc1OCCC(C)C,inactive,
CC(C)c1ccc2c(c1)-c1ccccc1S(=O)(=O)N2CC(=O)N1CCCCC1,"inconclusive: 31.6 µM [activator, single point]",
COc1ccc(S(=O)(=O)N(C)C[C@H]2Oc3c(NC(=O)Nc4ccc5c(c4)OCO5)cccc3C(=O)N([C@H](C)CO)C[C@@H]2C)cc1,active: 25.1 µM,
CC1CN(S(=O)(=O)c2cccc(C(=O)Nc3cc(Cl)ccc3N3CCOCC3)c2)CC(C)O1 (stereo unspecified),"inconclusive: 50.1 µM [activator, single point]",
O=C(Nc1c2c(nn1-c1ccc(F)cc1)CSC2)c1ccc(S(=O)(=O)N2CCOCC2)cc1,"inconclusive: 14.1 µM [activator, partial curve, poor fit]",
NC(=O)[C@@H]1CC2(CC(c3cccc(NC(=O)CC(c4ccccc4)c4ccccc4)c3)=NO2)CN1C(=O)COc1ccc(Cl)cc1 (stereo partly specified),"inconclusive: 15.8 µM [activator, partial curve, poor fit]",
CC12CCC(=O)C=C1CCC1C2CCC2(C)C(c3csc(N)n3)CCC12 (stereo unspecified),"inconclusive: 25.1 µM [activator, partial curve, poor fit]",
COC(=O)/C=C/c1ccccc1S(=O)(=O)N(Cc1ccccc1)Cc1ccco1,"inconclusive: 2.82 µM [activator, full curve]",
O=C(c1cccc(Cl)c1)N1CCC(=O)N(C(COCc2ccccc2)Cc2ccccc2)CC1 (stereo unspecified),"inconclusive: 35.5 µM [activator, single point]",
O=C(Nc1ccc(C(=O)NCCCN2CCN(c3ccc(F)cc3)CC2)cc1)C1=CSCCO1,"inconclusive: 25.1 µM [activator, partial curve, poor fit]",
O=C1c2ccc(Cl)cc2S(=O)(=O)c2cccc(C(=O)N3CCC(Cc4ccccc4)CC3)c21,"inconclusive: 14.1 µM [activator, partial curve]",
COc1ccc(C=C(c2nc3ccccc3s2)c2nc3ccccc3s2)cc1O,"inconclusive: 17.8 µM [activator, partial curve]",
COc1cc(CNn2nnnc2N)cc(Br)c1OCC(=O)NC(C)(C)C,inactive,
COc1ccc(C2C3=C(CCCC3=O)Nc3nc(C(F)(F)F)nn32)c(OC)c1OC (stereo unspecified),inactive,
Cc1cccc(C)c1-c1ccc(CN2C(CC(C)C)C(=O)N(Cc3cn(CCO)nn3)CCS2(=O)=O)cc1 (stereo unspecified),"inconclusive: 39.8 µM [activator, single point]",
O=C(O)c1ccccc1C(=O)NCCc1c(C(=O)O)[nH]c2ccc(Cl)cc12,inactive,
COc1ccc(C(=O)CSc2nnc(Cc3ccccc3)o2)cc1,,inconclusive: 59.6% [activator]
COc1ccc(CNC(=O)c2cccc3c(-c4ccc(F)c(F)c4)coc23)cc1OC,"inconclusive: 25.1 µM [activator, single point]",
C[C@H](CO)N1C[C@H](C)[C@@H](CN(C)S(=O)(=O)c2ccc(F)cc2)Oc2ccc(NC(=O)C3CCCCC3)cc2C1=O,"inconclusive: 17.8 µM [activator, partial curve, poor fit]",
